Laboratory results reported in the supplement of paper PMC3334620.
In all, about 33,000 sequences were measured (“E-score (-0.5 to 0.5)”: median about -0.054, highest 2% from about 0.39 on). This is one part of the list.

target: Ylr278c (UniProt Q05854); experiment: PBM E-score (8-mer binding enrichment) (E-score (-0.5 to 0.5)); higher = stronger / more preferred TF binding; most listed sequences are background and not binding sites; settings: protein concentration: 200 nM; construct: GST-DNA-binding domain
Outline: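 Universal all-10-mer Agilent arrays, fresh or stripped once, were converted to double-stranded form by primer extension. GST-tagged yeast transcription factors from PURExpress in vitro transcription/translation, full-length or DNA-binding domain only, were applied at about 100-200 nM and detected with fluorescent anti-GST. After masliner normalisation, the Universal PBM Analysis Suite scored each ungapped eight-base word together with its reverse complement by E-score.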

Sequence	PBM E-score
GTTGCTCA	-0.197
GAGTTTCC	0.288
CGGGACAG	0.182
AGCGCCAA	-0.242
GTTACCAA	-0.114
ACAGAGTC	-0.133
CCGAGAGA	0.228
CGGACAGC	0.267
ACGCGCGA	0.0879
AACTCATA	-0.035
AGTTATAT	0.0752
GTACGAAA	-0.238
ACTCTAGG	-0.285
GAACTATA	0.0455
GAACATTA	0.017
ATTGCCTG	-0.152
AGGGCCTG	-0.341
CCATCACA	-0.121
CACGGATG	0.12
AACTGATG	-0.186
AAAGGGTA	-0.168
AAGCGCCC	0.147
TCAAATCA	-0.315
CGAGTCTA	-0.0863
CAAGGGGA	-0.133

Sequence	PBM E-score
AAAAACCT	-0.046
CTGCCCGA	0.0786
AGTATTAG	0.134
CGGTGACC	0.137
AGCAACCA	-0.0573
AAATCGGC	0.355
TACCATCA	-0.286
AGGGGACC	-0.035
CGCTTTGA	-0.0158
ATAATAAA	0.0338
AACTCGCG	0.0802
CTAATACC	-0.0228
ATTAGTTG	-0.0328
GCCTACTA	-0.161
ACTAGTCC	0.136
GGGTAAGA	-0.0525
GCGCAAGC	-0.0163
ACGCTTAA	-0.169
ACACCAGC	-0.187
TAGACTCA	-0.143
ACTCGGTC	0.14
CACAGCAA	0.0615
ACTGCTAT	-0.0282
CGACGTAA	0.0877
GTCCCCGA	0.217

Sequence	PBM E-score
CGACTCAA	0.0186
ACCGGTAT	0.277
CGGTAAAC	0.109
AAGGTGGA	-0.0212
AATGGCGC	0.0672
ATCCTGAA	-0.0381
AGACATCG	-0.189
CGATTACA	-0.139
ATGCCAAA	-0.235
ATCGTAAA	-0.262
GGCGTGTA	-0.155
CTGGGTGA	-0.062
GCAACGCA	0.0823
CGGTGTCC	0.304
ACTTTTTA	-0.0457
TGCCCTAA	-0.106
AAGATAAC	0.0843
ACGTAGCT	-0.243
GCAGCGCC	0.0978
GCATAAAC	-0.0445
CACTAAGA	-0.0899
CGGGCCAA	0.154
ATCCTGTC	0.0186
ATAGCTCA	-0.219
AACATAGT	-0.0122

Sequence	PBM E-score
AGCTGATA	-0.116
AAAAAGAC	-0.0178
TCAGACGA	-0.171
CTAAGTAC	-0.176
AAGAGGAC	-0.219
CACATCAC	-0.0028
TCACCCGA	0.0882
AAGAGCGG	0.173
AGAGCAAT	-0.178
CACCTTTC	0.00591
GACATTGC	-0.11
ATATTTAA	0.0182
ATGGTCCC	-0.161
CGGTACTC	0.0568
CCGAATGC	0.316
TCCTAGCA	-0.125
TTCAAGAA	-0.0452
GGTTGTAA	-0.0633
CGGGCCGA	0.273
GCGGGGAA	0.286
CTGCCAAG	-0.181
AGAAAAAG	0.0464
GAAGGCCC	0.0957
CCTTCCCG	0.0813
AGTCAGGA	-0.0883

Sequence	PBM E-score
AGGGAAGC	-0.0222
TCGAGAAA	-0.12
ACATAGCA	-0.106
CTATTTAA	0.0636
ACTGCTCG	0.02
TAGGAATA	-0.0367
ATCGCGGG	0.195
AGTCTGAG	-0.266
AGTTAAGG	-0.213
CTACGTGC	-0.146
ATTTTATG	0.051
CCAGTACG	-0.2
GCAGAAGA	-0.114
AGACATAA	-0.0545
CCGTATAG	-0.0383
GTCTTTAA	-0.167
AGTCCATC	-0.0633
TATCGGAA	0.413
GTCGCTTA	0.0285
GTGCCCTA	-0.195
AATCCCAG	-0.0473
CTAGCGAC	-0.198
CGTCGCGA	0.0518
ACCTGGCT	-0.229
AACATGAC	-0.0624

Sequence	PBM E-score
GAGTACGA	0.138
GCCATGGA	-0.167
TCGGCTCA	0.0638
GCAGTATA	0.0183
CGGGGGCC	0.285
CACTCTGC	-0.137
AGACTGAT	-0.169
GGTCGGTA	0.163
CGTCAAGC	-0.0344
GTCCGTGA	0.278
AATGTTCA	-0.0955
CAAGAAGG	-0.19
GTGGACCA	-0.121
GATTGCCC	0.069
CGTTTGTC	0.113
CTAACCAC	-0.272
ACTGCTTC	0.0437
AGGACTAG	-0.101
GATGCACC	-0.00911
ATCATTTC	0.103
ATACAACG	0.0135
AGTACAAG	-0.122
AACACCAA	-0.272
CGCGTCGA	0.134
ACAGCACG	0.0776

Sequence	PBM E-score
AAAGGCAC	0.00534
CTAAAACC	0.0306
CGGCCTAG	0.162
ACTACTCA	-0.0182
ACGTACGT	-0.472
ACCGAGCG	0.225
AGTACTGG	-0.23
ACATCGTA	-0.0993
ATTAAAGA	-0.0341
ATGTTTGC	-0.05
TCGTTCCA	-0.13
ACATACGA	-0.142
TCCGTGCA	0.374
GTGATGGA	-0.0959
AGGCCTGG	-0.235
ACACAGCG	0.0171
TAGTCCAA	-0.0998
CGTTCCAC	0.0259
CTTAATTA	-0.106
CAGACTAC	-0.166
CAACCTTA	-0.26
ATAGACTC	-0.22
